# Source: the BET-seq Pho4 binding data (Le et al. 2018)
# Some of the results follow. Values were computed here from the reads of four pooled replicates and scatter widely.
# Biological target: T1, Pho4 (S. cerevisiae) (UniProt P07270)
# T1 sequence: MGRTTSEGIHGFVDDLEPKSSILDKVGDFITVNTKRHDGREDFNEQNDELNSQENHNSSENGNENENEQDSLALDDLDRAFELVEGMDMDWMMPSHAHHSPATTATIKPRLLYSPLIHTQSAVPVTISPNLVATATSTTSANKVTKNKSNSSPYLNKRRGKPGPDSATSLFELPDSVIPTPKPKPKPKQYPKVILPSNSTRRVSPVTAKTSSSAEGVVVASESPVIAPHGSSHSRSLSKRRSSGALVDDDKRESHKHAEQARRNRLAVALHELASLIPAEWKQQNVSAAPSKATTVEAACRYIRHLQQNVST
# Test: relative binding free energy (BET-seq); higher = weaker binding
# Conditions: reference: library average
row,Sequence,relative binding free energy
1,TTCGGCACGTGTGCAT,0.01 kcal/mol
2,TCGTTCACGTGTGGTA,0.35 kcal/mol
3,CAAGGCACGTGGGAGA,-0.08 kcal/mol
4,ATCGTCACGTGTATTG,0.04 kcal/mol
5,ATAGGCACGTGTTTAT,-0.15 kcal/mol
6,GCGGCCACGTGTGGGT,0.04 kcal/mol
7,CAAGTCACGTGAGTGG,0.28 kcal/mol
8,GGTCACACGTGGGAGC,0.06 kcal/mol
9,ATTGGCACGTGGTTTC,-0.08 kcal/mol
10,ACGGGCACGTGAGGCG,-0.07 kcal/mol
11,TGAGACACGTGGGGAA,0.03 kcal/mol
12,GCCGTCACGTGGGGTT,-0.17 kcal/mol
13,TCTGACACGTGTGGGG,0.06 kcal/mol
14,AGGGACACGTGCGTGT,-0.15 kcal/mol
15,AGTGGCACGTGAAGAT,0.15 kcal/mol
16,CTTGTCACGTGTTTTT,0.22 kcal/mol
17,TAACTCACGTGTGTAG,0.27 kcal/mol
18,GAGTACACGTGGGAGC,0.07 kcal/mol
19,TTAAACACGTGATGGG,0.07 kcal/mol
20,GGTTACACGTGATTGA,0.21 kcal/mol
21,GCGAGCACGTGTAGTT,0 kcal/mol
22,GGGCGCACGTGGTGGC,-0.14 kcal/mol
23,CGAGGCACGTGGGAAG,-0.34 kcal/mol
24,AAGGTCACGTGAAGTG,0.22 kcal/mol
25,TACTTCACGTGTGAGG,0.27 kcal/mol
26,GGTGTCACGTGGGTCT,-0.05 kcal/mol

row,Sequence,relative binding free energy
1,TGATGCACGTGGGTCT,-0.05 kcal/mol
2,AGGATCACGTGTTGGA,0.28 kcal/mol
3,GTAGGCACGTGTGTAA,-0.04 kcal/mol
4,GGCGGCACGTGAGTCA,0.2 kcal/mol
5,TTTCGCACGTGTTGCT,-0.1 kcal/mol
6,GGGTTCACGTGCTGTG,0.4 kcal/mol
7,GCAGTCACGTGGTGCT,0.02 kcal/mol
8,GAGTACACGTGGTTTA,0.06 kcal/mol
9,TGGAGCACGTGGATCT,-0.04 kcal/mol
10,AGGTGCACGTGTTGTT,-0.1 kcal/mol
11,GGTTGCACGTGATTCT,0.27 kcal/mol
12,GCATGCACGTGGGAGG,-0.07 kcal/mol
13,GTTAACACGTGGGGTA,-0.09 kcal/mol
14,CATGTCACGTGATGGA,0.18 kcal/mol
15,TTTTGCACGTGCCGTT,0.01 kcal/mol
16,TTTTACACGTGGTTTC,0.13 kcal/mol
17,TATTACACGTGTGTCT,0.1 kcal/mol
18,AAATACACGTGGGTTG,-0.12 kcal/mol
19,CGTTACACGTGTTTTT,0.04 kcal/mol
20,AAATGCACGTGTAGTT,0 kcal/mol
21,CTTGACACGTGCGGTG,-0.16 kcal/mol
22,TGGGGCACGTGATTAT,-0.02 kcal/mol
23,TTATTCACGTGGGGAG,0.14 kcal/mol
24,AAGGTCACGTGGGAAT,0.09 kcal/mol
25,TGTTACACGTGTACAT,0.18 kcal/mol
26,TTTTTCACGTGGGCAC,0.22 kcal/mol

row,Sequence,relative binding free energy
1,TCGGACACGTGCGGGT,-0.09 kcal/mol
2,GGCCGCACGTGTGGGA,0.01 kcal/mol
3,ATAAACACGTGGGAGG,0.08 kcal/mol
4,GGCGACACGTGTTTTG,0.13 kcal/mol
5,GGTAGCACGTGAGATA,0.18 kcal/mol
6,TTATTCACGTGATGCG,0.3 kcal/mol
7,GCGGGCACGTGTAATG,0.04 kcal/mol
8,AGTTACACGTGTAAAG,0.13 kcal/mol
9,TGTGCCACGTGTTAAG,-0.09 kcal/mol
10,TATAACACGTGAGAGT,0.18 kcal/mol
11,TCCATCACGTGGTTTA,0.32 kcal/mol
12,CTGTACACGTGTGGGG,0.16 kcal/mol
13,GACTTCACGTGGTGTG,0.2 kcal/mol
14,TGAGGCACGTGACTTG,0.12 kcal/mol
15,ATGCACACGTGCGGGT,-0.13 kcal/mol
16,GCTTTCACGTGTAATG,0.36 kcal/mol
17,GGTGGCACGTGTGTAG,-0.06 kcal/mol
18,ATGGGCACGTGGACTG,-0.05 kcal/mol
19,TGTGTCACGTGGAAAG,0.11 kcal/mol
20,GCTTTCACGTGTTGGT,0.37 kcal/mol
21,AAATTCACGTGTTTGC,0.16 kcal/mol
22,TCGTTCACGTGCAGTG,0.47 kcal/mol
23,AGAGGCACGTGGGCGG,-0.23 kcal/mol
24,ACGGGCACGTGGGGCA,-0.09 kcal/mol
25,GCGGACACGTGATGGG,-0.06 kcal/mol
26,TGCGGCACGTGTTGGC,-0.19 kcal/mol

row,Sequence,relative binding free energy
1,TAGATCACGTGTCTGG,0.19 kcal/mol
2,ATTGGCACGTGTGAGA,-0.05 kcal/mol
3,GGGTGCACGTGCGGGT,-0.03 kcal/mol
4,TGTGGCACGTGAAGAC,0.22 kcal/mol
5,AGATGCACGTGGGACG,-0.21 kcal/mol
6,ATGTACACGTGGTGGT,-0.14 kcal/mol
7,GAAGACACGTGTGGTA,0.01 kcal/mol
8,ATTGTCACGTGTGGCC,0.22 kcal/mol
9,GAAGGCACGTGGGCTA,-0.16 kcal/mol
10,ATAGACACGTGGAATT,0.18 kcal/mol
11,GTTAACACGTGTGGTC,0.14 kcal/mol
12,TTGGGCACGTGGTGCC,-0.2 kcal/mol
13,TATTGCACGTGTATGC,-0.05 kcal/mol
14,TTGGCCACGTGATTTG,-0.01 kcal/mol
15,AGGGGCACGTGATAGG,0.05 kcal/mol
16,TTGGTCACGTGTGCGT,0.02 kcal/mol
17,AAGTGCACGTGGAATT,0.01 kcal/mol
18,TGTAGCACGTGTATAG,-0.05 kcal/mol
19,TCGGTCACGTGTGAAT,0.38 kcal/mol
20,TGTAGCACGTGCCGGG,-0.18 kcal/mol
21,TCATGCACGTGGGCGT,-0.17 kcal/mol
22,TGCGTCACGTGGTAAG,0.1 kcal/mol
23,GGGGCCACGTGCGGTA,-0.24 kcal/mol
24,TTGTGCACGTGCTATG,-0.14 kcal/mol
25,GGGTCCACGTGCGGGT,-0.12 kcal/mol
26,TCTGGCACGTGTTAAT,-0.03 kcal/mol

row,Sequence,relative binding free energy
1,GGATACACGTGCTGTT,0.05 kcal/mol
2,CTGTACACGTGGGATA,0.02 kcal/mol
3,AAAGGCACGTGGTGGA,-0.13 kcal/mol
4,TGCTGCACGTGGGAGG,-0.14 kcal/mol
5,AGGGACACGTGGTGAT,-0.13 kcal/mol
6,TAATTCACGTGAGACT,0.45 kcal/mol
7,ATATACACGTGGGAGT,-0.14 kcal/mol
8,GTCGGCACGTGGGAGC,0 kcal/mol
9,AAGAGCACGTGGTAGT,-0.24 kcal/mol
10,GATTGCACGTGAGCTT,0.28 kcal/mol
11,GTAGTCACGTGGAGAT,0.06 kcal/mol
12,TAGGTCACGTGTTACG,-0.02 kcal/mol
13,TTGTGCACGTGCGCGT,-0.16 kcal/mol
14,TTGTTCACGTGAAATT,0.37 kcal/mol
15,GTATTCACGTGTTAGC,0.25 kcal/mol
16,CGTAACACGTGGGTGT,-0.25 kcal/mol
17,TTCGGCACGTGCATGA,-0.04 kcal/mol
18,ATTAACACGTGGCTGT,-0.18 kcal/mol
19,GTTTTCACGTGGATCG,0.5 kcal/mol
20,TGTGCCACGTGTCTGA,0.03 kcal/mol
21,TGTAGCACGTGCGATT,0.04 kcal/mol
22,TTGGACACGTGGGCGA,-0.16 kcal/mol
23,TTAAGCACGTGTGCAG,-0.11 kcal/mol
24,AGGGTCACGTGCTAGG,0.11 kcal/mol
25,ATAGGCACGTGCGTTA,-0.21 kcal/mol
26,AGCATCACGTGGTGGA,0.11 kcal/mol

row,Sequence,relative binding free energy
1,TATATCACGTGGGGTT,-0.04 kcal/mol
2,TGACTCACGTGTAGTT,0.12 kcal/mol
3,GATAACACGTGGTTAA,0.17 kcal/mol
4,ATTGTCACGTGCGATG,-0.02 kcal/mol
5,GTTATCACGTGTCATG,0.24 kcal/mol
6,CTTGTCACGTGAAGAT,0.24 kcal/mol
7,TATTTCACGTGACGGG,0.26 kcal/mol
8,GGTTTCACGTGTAGAG,0.32 kcal/mol
9,TGAGGCACGTGGGGTT,-0.2 kcal/mol
10,AGCCGCACGTGTGGGG,-0.02 kcal/mol
11,TTTGGCACGTGATAGA,0.01 kcal/mol
12,AAGTTCACGTGTTCGA,0.3 kcal/mol
13,TAAGCCACGTGGGGGT,-0.2 kcal/mol
14,TTGGACACGTGTTTAG,0.18 kcal/mol
15,TAGAGCACGTGTTGGG,-0.05 kcal/mol
16,TAAAACACGTGAGTAG,0.25 kcal/mol
17,GTGATCACGTGGTTAT,0.1 kcal/mol
18,AGTTGCACGTGTGGGG,0.06 kcal/mol
19,AAAGGCACGTGTGGGT,-0.05 kcal/mol
20,GTGAGCACGTGTAATA,-0.03 kcal/mol
21,GTCAACACGTGGGGTA,-0.12 kcal/mol
22,GGGTACACGTGGGCCT,0.02 kcal/mol
23,GCGTCCACGTGGGGTG,-0.12 kcal/mol
24,TTGGTCACGTGGTTCC,-0.07 kcal/mol
25,ACGGGCACGTGGTGCG,-0.34 kcal/mol
26,AGGATCACGTGGTTCG,0.07 kcal/mol

row,Sequence,relative binding free energy
1,GTTCGCACGTGTTTAG,0.14 kcal/mol
2,GGGACCACGTGGCGTG,-0.12 kcal/mol
3,AATATCACGTGTATAG,0.1 kcal/mol
4,TGAGTCACGTGATTAT,0.23 kcal/mol
5,AATGGCACGTGAGACG,0.04 kcal/mol
6,GGATTCACGTGGCGGC,0.24 kcal/mol
7,TGAAGCACGTGTGGGT,0.01 kcal/mol
8,TACGTCACGTGATTTT,0.2 kcal/mol
9,TACATCACGTGTGAGG,0.12 kcal/mol
10,AGAGGCACGTGTAAGG,-0.01 kcal/mol
11,GGGTTCACGTGTTATA,0.19 kcal/mol
12,TAGGACACGTGCAGGT,-0.08 kcal/mol
13,AAGGTCACGTGTAAGT,0.31 kcal/mol
14,TTATTCACGTGCCGTT,0.14 kcal/mol
15,AATATCACGTGATCGG,0.27 kcal/mol
16,CGCTTCACGTGGTGTT,0.09 kcal/mol
17,GGGAACACGTGTGGTC,0.11 kcal/mol
18,ATGGGCACGTGAATGC,0.09 kcal/mol
19,TATGACACGTGGTTCG,-0.03 kcal/mol
20,TGGTGCACGTGGGGAG,-0.15 kcal/mol
21,TATTGCACGTGTAATT,0.17 kcal/mol
22,GTGTCCACGTGTTGAT,0.07 kcal/mol
23,TGGCGCACGTGTTTTA,0.09 kcal/mol
24,TGGCGCACGTGCTTGG,-0.14 kcal/mol
25,AATGGCACGTGGCCGG,-0.25 kcal/mol
26,AGCGGCACGTGTGCTG,-0.16 kcal/mol

row,Sequence,relative binding free energy
1,GTGAGCACGTGCGGCT,-0.12 kcal/mol
2,TTGCTCACGTGTTTAT,0.27 kcal/mol
3,GTTGGCACGTGTTCGA,-0.08 kcal/mol
4,TATCACACGTGTGGGA,0.06 kcal/mol
5,AACATCACGTGTTGGG,0.13 kcal/mol
6,GGTCGCACGTGGTTAG,-0.07 kcal/mol
7,GTCCGCACGTGTGTGG,-0.12 kcal/mol
8,TTGTGCACGTGCAGGC,0.03 kcal/mol
9,AAGTCCACGTGGTGTT,-0.03 kcal/mol
10,TATGTCACGTGGTTAT,0.01 kcal/mol
11,GGTTACACGTGGAAGA,0.11 kcal/mol
12,ATATACACGTGAGAGG,0.13 kcal/mol
13,TTTTGCACGTGTAAGC,0.2 kcal/mol
14,CTTGGCACGTGAGGGT,0.07 kcal/mol
15,GGGTACACGTGTGTAG,0.04 kcal/mol
16,GAGGGCACGTGCGGAA,-0.14 kcal/mol
17,CGGTGCACGTGGGGCC,-0.17 kcal/mol
18,GAGGGCACGTGAATTG,0.19 kcal/mol
19,GTGGTCACGTGGCTGA,0.15 kcal/mol
20,ACTAGCACGTGAGTGT,0.18 kcal/mol
21,TTTGGCACGTGATCTT,-0.01 kcal/mol
22,ATCTGCACGTGAAGGT,0.24 kcal/mol
23,CTTATCACGTGGGCGT,0.06 kcal/mol
24,ATGGCCACGTGTGGTA,-0.18 kcal/mol
25,ATGTACACGTGCTGTT,0 kcal/mol
26,TAGGACACGTGATGTG,0.06 kcal/mol

row,Sequence,relative binding free energy
1,TGATTCACGTGATGGG,0.38 kcal/mol
2,TGATGCACGTGGGATA,-0.13 kcal/mol
3,TGGATCACGTGGTGCA,0.09 kcal/mol
4,GTTTGCACGTGCCGGT,-0.09 kcal/mol
5,AGATACACGTGGAGTT,0.13 kcal/mol
6,AGGGTCACGTGCTAGT,0.09 kcal/mol
7,CGTCTCACGTGGTTAG,0.23 kcal/mol
8,TGTTACACGTGGACGG,0.14 kcal/mol
9,AGATTCACGTGGCGTG,0.14 kcal/mol
10,TTGAGCACGTGGGGGA,-0.13 kcal/mol
11,TAAGGCACGTGTAGGC,-0.1 kcal/mol
12,GTGTGCACGTGGCTGG,-0.09 kcal/mol
13,TAGGCCACGTGGTGTG,-0.11 kcal/mol
14,TATAGCACGTGTATTT,0 kcal/mol
15,TATTACACGTGCGGGG,0.09 kcal/mol
16,AGTAGCACGTGTAAAG,-0.01 kcal/mol
17,GGGTGCACGTGATCGT,0.22 kcal/mol
18,AAGAACACGTGGGAAG,0.07 kcal/mol
19,GTAGTCACGTGAGATT,0.33 kcal/mol
20,GTGCACACGTGCGGTG,0.03 kcal/mol
21,TGGTGCACGTGAGTCG,0.21 kcal/mol
22,GGGCTCACGTGGTTCT,0.25 kcal/mol
